From paper PMC12136788
The other results are listed elsewhere or left out.

T1: UNK ZnF1-3 (human, UniProt Q9C0B0 31-174)
T1 sequence: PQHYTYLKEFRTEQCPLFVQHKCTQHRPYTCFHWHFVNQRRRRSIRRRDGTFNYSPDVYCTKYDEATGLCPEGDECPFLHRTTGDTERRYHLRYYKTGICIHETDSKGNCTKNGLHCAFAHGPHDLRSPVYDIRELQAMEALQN

B1: chr12:67699843:67699844:+_ENSG00000111530_ENST00000544619|hu_mus|FALSE|FALSE (ssRNA)
RNA: GGGAGUUCUACAGUCCGACGAUCAAUAAACUGACCUACUACGGCGGGUCCCUCUUUAGGGCAAGCUCGAGUAAGGGCAGCUACACAUUUGGCAAUGGAAUAAUAAGACUGCUUAUGAGUGAGAGCAGUGCUCUGAGAAUAAACCAACAGAGGAUUGAGCAUCA
B2: chr4:17845017:17845018:+_ENSG00000109805_ENST00000514176|hu_mus|hu_hu_hu_mus_False|1_8 (ssRNA)
RNA: GGGAGUUCUACAGUCCGACGAUCGCUCUCUUAACUUGUAUCUUCAUUAAGGAACUCUGCAAGGUUAAGUUUACUUUUCUGUAGCGCAGCUGUUUUGGCUCGUCUGGGUAAUCUCAUCUUCAUUUCUAUUCUGGUUCUGGAACUCAACAGAGGAUUGAGCAUCA
B3: 160785937_160786057_6708_CDS_ENSMUSG00000057133_ENSMUST00000039782|mouse|control|control (ssRNA)
RNA: GGGAGUUCUACAGUCCGACGAUCGCUGGCACUCACUGGGAAAGGAGAUGUGGCUCCUGGAGACCCCUCUGAGGAGCAGGAGAGGUCUAUAGCUGACUCCCCAUGCCAGCCAUUGAGGACAAUGGGCGGACGCCCAUGGGUGGCCAACAGAGGAUUGAGCAUCA
B4: chr11:74504092:74504093:-_ENSMUSG00000020745_ENSMUST00000021091|mus_hu|FALSE|FALSE (ssRNA)
RNA: GGGAGUUCUACAGUCCGACGAUCCUUCCUUUUUAAAAACUGAAUAUGCCUCUUCAUAGCCAUUUGAACGAAGAUAAUCUGCUAUAGCUCGAUUUAGUUCAUCUCGUUGUCUCUGGGACAGCACCAUCUUGGCUGUAAUGUCAACAACAGAGGAUUGAGCAUCA
B5: chr18:211299:211300:+_ENSG00000101557_ENST00000383589|hu_mus|motif|central (ssRNA)
RNA: GGGAGUUCUACAGUCCGACGAUCAGAUUAUAGAAAUGUUCAACAACAACAACAAAAACAUUCACACCUAAGCAUAAAUAGCGGAAUUGAAGAUUACUGUUCACUUUCUUCUUCCAUUAUUUCAACUCUUCGAGGCCCAUAAAGCAACAGAGGAUUGAGCAUCA
B6: chr10:98281081:98281082:-_ENSG00000077147_ENST00000371142|hu_mus|FALSE|FALSE (ssRNA)
RNA: GGGAGUUCUACAGUCCGACGAUCAUCGCAAUACAGUCCCCCAGUCAGUCUGUACAUCCAAAUGCAUCCAGGAACCUACACCUACGCGACAUUAUUAAUGUUAUAUACAUUUAUUGCCCCCCUUGUUUUGUUUAAUAAUUUCUUCAACAGAGGAUUGAGCAUCA
B7: chr4:115894766:115894767:+_ENSMUSG00000028698_ENSMUST00000030464|mus_hu|mus_mus_mus_hu_True|58_88 (ssRNA)
RNA: GGGAGUUCUACAGUCCGACGAUCUUCCACACGGAAAUGUACUUCGGGUUUCCAACGGGCCAGUACCAGUCCGGCCAACUACUAGGAACAGGGUCCUCCCCCUCUCUCCUACAGAACACAACAAAAUGCCCCCGAACUUUCAAGCAACAGAGGAUUGAGCAUCA
B8: chr11:30352807:30352808:+_ENSG00000152219_ENST00000282032|hu_hu|FALSE|FALSE (ssRNA)
RNA: GGGAGUUCUACAGUCCGACGAUCCUUCCAACCAGGUACAAGCUGUCUUCCAAAUUUAGCACUCAGAAAAGUGGCAUCAUCUAAGUCAAUUACAUGCAAAUUUUUUUUGGCUAAUUUCUUGUGUAUGUUAAAUGGGUCACAACACAACAGAGGAUUGAGCAUCA
B9: chr14:23562722:23562723:-_ENSG00000100813_ENST00000605057|hu_hu|FALSE|FALSE (ssRNA)
RNA: GGGAGUUCUACAGUCCGACGAUCCUGGCUCAUUUCCUCACCAAUCUGGGAAUUUGGCUGGAAUGCAGCAUGGGGUGUUGAGUGUUUCUGUAAAUUUUCUAGCAUUAGAGCCCCUUUGAGCCGCUUGACCAGGGCACUCUUCUGCAACAGAGGAUUGAGCAUCA
B10: chr2:162251599:162251600:+_ENSG00000115233_ENST00000409682|hu_mus|FALSE|FALSE (ssRNA)
RNA: GGGAGUUCUACAGUCCGACGAUCACAGUGUUCACUGUAGUCCUGAAGUGUCAAUCCUUCCAUCCAACUCUUCUUAUGCAAAUUUAACAGCAUCUUCUGUUCCAGUUCAUUUUUCCGGUAAUUAAUAGUGAUGGAGUAAUAAUGCAACAGAGGAUUGAGCAUCA
B11: chr9:96327448:96327449:+_ENSG00000048828_ENST00000277165|hu_mus|FALSE|FALSE (ssRNA)
RNA: GGGAGUUCUACAGUCCGACGAUCUAGUCACGAGGUUUCAGAACACAUUGUGUUGACUUUGAAAGGUCAUUUGCAUCUUCUAUGAUUUCAACGUAAUCUCCAUUGAACUUGCUUGUAAAGGAUGUAUGAUGUACUGUGUAUUCACAACAGAGGAUUGAGCAUCA
B12: chr14:31821845:31821846:+_ENSMUSG00000021916_ENSMUST00000168584|mus_mus|motif|central (ssRNA)
RNA: GGGAGUUCUACAGUCCGACGAUCGGGAAUCUCCUCUUGCCUCUCACUCACUGGAUGCUGAUGAGCACUGGCGACAAAGUCGGUGGGCUGAAGCCCCACAAUUCCCGAAUCUGAAAUGUCAUUCUUUAACAAACUGCUCAAGCUCAACAGAGGAUUGAGCAUCA
B13: chr9:35104861:35104862:-_ENSG00000005238_ENST00000378566|hu_mus|FALSE|FALSE (ssRNA)
RNA: GGGAGUUCUACAGUCCGACGAUCUGGGGUGAUGCCAAUUAUCAGGUUUGGGAGGUCACCAAGGCAAUCCAAUUUGAAUAAAUUAUAAAUUAAAAAUAAAUAAAAUAAUAAGUGGCCCCUGCCCAGGACAGGGAGGCAACGCUGCAACAGAGGAUUGAGCAUCA
B14: 116164458_116166158_504_CDS_ENSMUSG00000031028_ENSMUST00000033341|mouse|control|control (ssRNA)
RNA: GGGAGUUCUACAGUCCGACGAUCCAGCUGUACACUGGCAAUCGAGUCGGCCUCUUGAACUUGGUAGCUGGUGCUGCCACUGCUGCUGAGGUAGGACUCCACCAGGGGGGCUUGCUCCUCUGACUGCCGGGCUCGCCGACUCCGCAACAGAGGAUUGAGCAUCA
B15: chr1:10037540:10037541:+_ENSMUSG00000056763_ENSMUST00000071087|mus_hu|FALSE|FALSE (ssRNA)
RNA: GGGAGUUCUACAGUCCGACGAUCACCCCUGGUCUGUUGACUAUUUGGUGGUAUGUUUUCCUUAGCCAUAGAGAUCAGUAUCUUACUGUUUUCAGAAAGCUUCGCUGACAACUUUCCCUUCAUUUCCAUGUAAGGUGGAUCACUCAACAGAGGAUUGAGCAUCA
B16: chr10:33221514:33221515:-_ENSG00000150093_ENST00000302278|perfect_dup|FALSE|FALSE (ssRNA)
RNA: GGGAGUUCUACAGUCCGACGAUCAUUUGGCCCUGCUUGUAUACAUUCUCCACAUGAUUUGGCAUUUGCUUUUAAACAUCUAUUUUCAUCUGUUUGAGCAAACACACAGCAAACUGAACUGAUCAGUCCAAUCCAGAAAAUUGGCAACAGAGGAUUGAGCAUCA
B17: chr2:42472670:42472671:+_ENSG00000143924_ENST00000318522|hu_mus|FALSE|FALSE (ssRNA)
RNA: GGGAGUUCUACAGUCCGACGAUCCGUGACUCAAGAGCUGAGAGGCGGUCUUGAACGUCAGAGGUACUUGCAGCAGAAAUACUAUCAUCGAGGCUGCCGGCGAAACCGUCCAUCUUGCGGGGACCGCGCCGGGCUCGGGGCUCACAACAGAGGAUUGAGCAUCA
B18: chr7:7612872:7612873:+_ENSG00000164654_ENST00000405785|hu_hu|motif|central (ssRNA)
RNA: GGGAGUUCUACAGUCCGACGAUCUUUUGUUAAGGGUUUUGGUUGCUCAGUCAAUGUCAAAACUGGCUUCUCAAAUUUUCGGAGAUCCCAUAUUGCAACCUGACCUUCAUAGAAGGAAGCAACACGAUCGUGGAAAUAUGGGUCCAACAGAGGAUUGAGCAUCA
B19: chr3:148802587:148802588:-_ENSG00000071794_ENST00000310053|hu_mus|hu_hu_hu_mus_False|18_18 (ssRNA)
RNA: GGGAGUUCUACAGUCCGACGAUCUCCAACAACUUGUCCUCUCAUAGUUCCAAAUAAAACCAAAUCUUGCUCUUCAUCACUCGUUAGGAAGUCAUCUGGAGGAAUAAUGUCUUGGAAUUCAAAACGUGGCAAGAAAGUUGAGUACAACAGAGGAUUGAGCAUCA
B20: 171544204_171546629_2394_CDS_ENSG00000117523_ENST00000495585|human|control|control (ssRNA)
RNA: GGGAGUUCUACAGUCCGACGAUCGGUCCGAUGUGGUUGUAGAUUUUGUGCUCAAAGAAGAGGUAGUGUAUGUACCAGCUCCUGAUAGUGAUGCUGUAGGAGUGACUGAAGCAACAGGAAUCUGGGGCAUGGAUGCACUUGAGACAACAGAGGAUUGAGCAUCA
B21: chr2:38870607:38870608:+_ENSMUSG00000026755_ENSMUST00000090993|perfect_dup|FALSE|FALSE (ssRNA)
RNA: GGGAGUUCUACAGUCCGACGAUCGUCUUUUUAUUUUUUUUAAACAGUCUUUCUUGCUGUAAGAACUCUUAUAAUGGAGCCUAGUCCUCCUACUGCUAAGGCCUUUUCGUGCCACUGGAGUAACACUGCGCUGCUAUUUUCUGUCAACAGAGGAUUGAGCAUCA
B22: chr1:109605425:109605426:-_ENSG00000197780_ENST00000461096|hu_hu|FALSE|FALSE (ssRNA)
RNA: GGGAGUUCUACAGUCCGACGAUCUAGUCAAGGACACAUUUCCACAAUGAACAAGUACUUACAAAUAUGUUAAUAAAACACUAACCCAAAUGCUUACCCUGCCAUCAGCUUUUUAAACAAUGCCAUUCCUGCUACUGAAAGCAUCAACAGAGGAUUGAGCAUCA

target: T1, UNK ZnF1-3; experiment: nsRBNS (natural sequence RNA bind-n-seq); RBNS binding buffer (assumed for nsRBNS): 25 mM Tris pH 7.5, 150 mM KCl, 3 mM MgCl2, 0.01% Triton X-100, 500 ug/ml BSA, 20 U/ml SUPERase-In, 4 C; UNK is unkempt and MSI1 is Musashi-1; names of the RNAs are library labels; protein concentration not given here; high values mean tight binding

Binder | binding signal [enrichment R]
B1 | 1.15
B2 | 0.36
B3 | 0.765
B4 | 0.79
B5 | 0.543
B6 | 1.24
B7 | 1.2
B8 | 1.94
B9 | 1.03
B10 | 1.1
B11 | 0.742
B12 | 1.08
B13 | 1.57
B14 | 0.417
B15 | 0.395
B16 | 0.912
B17 | 1.28
B18 | 0.88
B19 | 1.25
B20 | 1.14
B21 | 0.657
B22 | 1.47
